From PubChem BioAssay AID2100 (National Center for Advancing Translational Sciences (NCATS), 2009)
Hit rate of the full screen: of about 300,000 compounds, about 1,200 (0.4%) were called active. Inconclusive results, whose numbers are uncertain, are shown with a selection of clear calls. The call rests on the fitted dose curve; in most records, active means well fitted inhibition curve with a large enough effect; inconclusive means small, poorly fitted or top-dose-only effect, or another doubt; inactive means no such curve, though single readings can be large or run the other way. Potencies beside an inconclusive call are fits to weak or partial responses and may not hold up.

The compounds below were run against Lysosomal alpha-glucosidase (Homo sapiens) (UniProt P10253) (assay: qHTS Assay for Inhibitors and Activators of Human alpha-Glucosidase Cleavage of Glycogen). Settings: recombinant GAA, glycogen substrate, Amplex Red glucose oxidase fluorescence; series mostly up to 76.4 µM.
In short: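 Recombinant human enzyme (4 nM); glycogen substrate; 37 C, 40 min, pH 5.0. Readout: coupled glucose oxidase/Amplex Red fluorescence.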
Potency means the concentration at half of the fitted maximal effect.

| SMILES | Potency |
| --- | --- |
| Cn1ncc(SCc2ccccc2)c(Cl)c1=O | inactive |
| OCC(O)C1OC(Nc2ccc(Cl)cc2)C(O)C1O (centres undefined) | inconclusive: 28.2 µM [activator, partial curve] |
| CC1=C/C(=N\S(=O)(=O)c2ccccc2)C(C(C)C)=CC1=O | inconclusive: 14.1 µM [inhibitor, partial curve] |
| C=CCNc1oc(Cc2cccc3ccccc23)nc1C#N | inconclusive: 14.1 µM [inhibitor, partial curve, poor fit] |
| COc1ccc(N2C(=O)C(Cl)=C(Nc3ccccc3O)C2=O)cc1 | inconclusive: 31.6 µM [inhibitor, partial curve] |
| Cc1ccccc1-c1noc(-c2ccccc2OCC(=O)Nc2cccc([N+](=O)[O-])c2)n1 | inconclusive: 35.5 µM [inhibitor, partial curve] |
| O=C(CNc1cc(S(=O)(=O)N2CCOCC2)ccc1N1CCCC1)NCc1ccco1 | inconclusive: 15.8 µM [inhibitor, partial curve] |
| CCCN(CCC)CCCNC(=O)c1cc2c(=O)n(C)c3ccccc3c2s1 | inactive |
| C/C(=N/NC(=O)c1ccc(Br)s1)c1cccnc1 | inconclusive: 35.5 µM [inhibitor, single point] |
| COc1cc(/C=C(/C(=O)c2cccs2)c2nc3ccccc3[nH]2)ccc1O | inconclusive: 9.92 µM [inhibitor, partial curve] |
| C/C(=N\NC(=S)Nc1ccccc1C)c1ccc(O)cc1 | inconclusive: 5.01 µM [inhibitor, partial curve] |
| C/C(=N\Nc1cccc(C(=O)O)c1)c1ccc(Cl)s1 | inconclusive: 14.1 µM [inhibitor, partial curve] |
| CCOc1ccc(N/C(C)=C/C(=O)c2ccc3c(c2)OCCO3)cc1 | inconclusive: 35.5 µM [inhibitor, single point] |
| COc1cc2nc(SCc3ccc(C)cc3)n3nc(CCn4nc(C)cc4C)nc3c2cc1OC | inactive |
| Cc1[nH]n(-c2ccccc2)c(=O)c1CCO | inconclusive: 28.2 µM [inhibitor, partial curve] |
| Cc1ccccc1-c1ccc(Nc2ccc(N3CCOCC3)cc2)nn1 | inconclusive: 5.01 µM [inhibitor, partial curve] |
| O=C(N/N=C/c1c(O)n(Cc2ccccc2)c(=O)c2ccccc12)c1cccnc1 | inconclusive: 39.8 µM [inhibitor, single point] |
| O=C(CSc1nc(-c2cccc(F)c2)[nH]c1-c1ccccc1)Nc1ccc2c(c1)OCO2 | inactive |
| COc1ccc(Nc2nc(C)cc(=O)[nH]2)cc1 | inactive |
| c1ccc(C2=Nc3ccccc3OC2)cc1 | inconclusive: 35.5 µM [inhibitor, single point] |
| Cc1ccc2c(C(=O)CNc3nncs3)c(C)[nH]c2c1 | active: 28 µM |
| CCOC(=O)c1ccc(NC(=O)c2cn3c4c(ccc(Cl)c4c2=O)OC(C)C3)cc1 (centres undefined) | inconclusive: 50.1 µM [inhibitor, single point] |
| CCOC(=O)C(=O)NNc1ccc(C)cc1 | inconclusive: 8.91 µM [inhibitor, partial curve] |

| SMILES | Potency |
| --- | --- |
| CCOC(=O)c1cn[nH]c1NC(=S)Nc1ccccc1 | inconclusive: 15.7 µM [inhibitor, partial curve] |
| Cc1ccc(/C=N/NC(=S)N2CCOCC2)cc1 | inconclusive: 31.6 µM [inhibitor, single point] |
| Cc1ccc(-n2nc(C)c3c(C(F)(F)F)cc(-c4cccnc4)nc32)cc1Cl | inconclusive: 11.2 µM [inhibitor, single point] |
| CS(=O)(=O)Nc1ccccc1N=C(c1ccccc1)c1ccccc1 | inconclusive: 12.6 µM [inhibitor, partial curve] |
| COc1cc(/C=N/n2cc(-c3ccccc3)[nH]c2=S)cc(OC)c1O | inconclusive: 24.9 µM [inhibitor, single point] |
| Cc1ccc(-n2c(C)csc2=N)cc1 | inconclusive: 28.2 µM [inhibitor, partial curve] |
| Cc1ccccc1Nc1c(-c2ccc(N3CCOCC3)cc2)nc2ccc(Br)cn12 | inconclusive: 14.1 µM [inhibitor, partial curve] |
| O=[N+]([O-])c1ccc(O)c(/C=N/Nc2ccccc2Cl)c1 | inconclusive: 3.14 µM [inhibitor, single point] |
| Cn1ccnc1SCC(=O)c1ccc([N+](=O)[O-])cc1 | inconclusive: 28.2 µM [inhibitor, partial curve] |
| O=C(O)c1cccc(S(=O)(=O)Nc2ccc3oc(=O)sc3c2)c1 | inconclusive: 5.58 µM [inhibitor, full curve] |
| C/C(CCC(C)C)=N\Nc1cc(C)c2ccccc2n1 | inconclusive: 31.4 µM [activator, single point] |
| O=C(O)COc1ccccc1/C=N/Nc1ccc(S(=O)(=O)N2CCOCC2)cc1[N+](=O)[O-] | inconclusive: 25.1 µM [inhibitor, single point] |
| COc1ccc(-n2cc(-c3ccccc3)[nH]c2=S)cc1 | inconclusive: 9.92 µM [inhibitor, partial curve] |
| O=C(O)c1ccccc1C(=O)NNc1ccc(F)cc1 | active: 28.2 µM |
| CS(=O)(=O)NNC(=O)c1sccc1OCc1ncc(C(F)(F)F)cc1Cl | inconclusive: 5.01 µM [inhibitor, single point] |
| COc1ccc(N/C=C(\C#N)c2ccc(OCCCF)cc2)cc1 | inconclusive: 9.92 µM [inhibitor, partial curve] |
| CCCCNC(=O)O[C@H]1C[C@@H]2CCN3C(=O)CCC(C)(C)[C@H](C1)[C@H]23 | inactive |
| COc1ccc2cc(C3C(C#N)=C(N)OC(C)=C3C(C)=O)c(Cl)nc2c1 (centres undefined) | inconclusive: 39.5 µM [inhibitor, partial curve] |
| CC(C)(C)c1ccc(O)c(N=Cc2cc3c(cc2[N+](=O)[O-])OCO3)c1 | inconclusive: 31.6 µM [inhibitor, single point] |
| O=S(=O)(Nc1cccc2c1CCCC2)c1ccc(Cl)cc1 | inconclusive: 39.5 µM [inhibitor, single point] |
| Cc1c(N=C2C=C(Br)C(=O)C(Br)=C2)c(=O)n(-c2ccccc2)n1C | inconclusive: 12.6 µM [inhibitor, partial curve] |
| COc1cc(/C=C/C(=O)OCC(=O)N2CC(=O)Nc3ccccc32)ccc1O | inconclusive: 17.8 µM [inhibitor, partial curve] |
| CC(C(=O)Nc1cc([N+](=O)[O-])ccc1Cl)N1CCN(c2ccc(O)cc2)CC1 (centres undefined) | inconclusive: 12.6 µM [inhibitor, partial curve] |

| SMILES | Potency |
| --- | --- |
| O=S(=O)(c1ccc2ccccc2c1)N1CCN=C1SCc1cccnc1 | inactive |
| c1ccc(CN2CCC(N=C3NN=C(c4ccc5c(c4)OCCO5)CS3)CC2)cc1 | inconclusive: 28.2 µM [inhibitor, single point] |
| COc1ccc(/C=N/NC(=S)Nc2cccc(C(=O)O)c2)cc1OC | inconclusive: 12.6 µM [inhibitor, partial curve] |
| O=C(NNC(=S)Nc1ccccc1Cl)c1ccncc1 | inconclusive: 25.1 µM [inhibitor, partial curve] |
| COc1ccccc1S(=O)(=O)Nc1ccc(-c2nnc3n2CCCCC3)cc1 | inactive |
| O=C(NNC(=O)c1sccc1-n1cccc1)Nc1ccc(F)cc1 | inconclusive: 44.7 µM [inhibitor, partial curve] |
| Cc1ccc(CNC(=O)Nc2ccccc2)cc1 | inactive |
| COc1ccc(CCNC(=O)CCCn2c(=O)c3ccccc3n(Cc3ccccc3)c2=O)cc1OC | inactive |
| Oc1cccc(/C=N/NC(=S)NCCN2CCOCC2)c1O | inconclusive: 31.6 µM [inhibitor, single point] |
| CCN1CCN(c2cc(C)c3cc(NC(=S)N4CCC5(CC4)OCCO5)ccc3n2)CC1 | inconclusive: 39.8 µM [inhibitor, single point] |
| CCC(C(=O)NCc1ccccc1)n1ncn2c(cc3occc32)c1=O (centres undefined) | inconclusive: 11.2 µM [inhibitor, single point] |
| CCOC(=O)c1ccc2ncc(C(=O)OCC)c(Nc3ccc(C)c(Br)c3)c2c1 | inactive |
| COc1ccc(OC(C)C(=O)NCc2nc(-c3ccc(Cl)cc3)no2)cc1 (centres undefined) | inactive |
| O=C(CN1CCN(c2ccc(O)cc2)CC1)NC(c1ccccc1)c1ccccc1 | inconclusive: 50.1 µM [inhibitor, single point] |
| Cc1ccc(-n2c3c(cc(-c4nc(-c5ccc(Cl)cc5)cs4)c2=O)C(=O)CC(C)(C)C3)cc1 | inactive |
| COc1cccc(C(=O)NNC(=O)C(=O)Nc2cccc(Cl)c2C)c1 | inactive |
| O=C(NCCN1CCCC1)C(c1ccccc1)c1ccccc1 | inactive |
| COc1cc(/C=N/N=C(\N)c2nonc2N)ccc1O | active: 31.6 µM |
| Cc1sc2c(c1C)CN(Cc1ccncc1)CN2C(=O)c1ccco1 | inconclusive: 28.2 µM [inhibitor, partial curve] |
| CCN(CC(=O)Nc1cccc(OC)c1)C(=O)c1ccc(C)s1 | inconclusive: 31.6 µM [inhibitor, single point] |
| CCOc1cc(/C=N/NC(=O)CSc2cccc3cccnc23)ccc1O | inconclusive: 11.2 µM [inhibitor, partial curve] |
| CCC(=O)NNc1nc2c(C)c(C)ccc2s1 | inconclusive: 3.14 µM [inhibitor, full curve] |
| C=CC[n+]1c(-c2ccc(OC)c(OC)c2)csc1NNC(=O)Nc1ccccc1 | active: 31.6 µM |
